# Results as given in paper PMC6919601, “Identification of Plasmodium dipeptidyl aminopeptidase allosteric inhibitors by high throughput screening” (PLoS ONE, 2019).
# Among all 110,000 compounds or so, about 230 (0.21%) showed an effect of 50% or more. The list shows a part of the results.
# Molecular target: DPAP1 (Plasmodium falciparum, UniProt Q8IIJ9)
# Assay: primary screen, percent inhibition; read by cleavage of a fluorogenic dipeptide substrate; higher = more effect of the substance
# Set-up: species or system P. falciparum D10 trophozoite lysates; single well
# 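Further: 30 min substrate incubation versus DMSO and 10 µM JCP410 controls.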
# Chain of DPAP1 (Q8IIJ9 whole entry, looked up): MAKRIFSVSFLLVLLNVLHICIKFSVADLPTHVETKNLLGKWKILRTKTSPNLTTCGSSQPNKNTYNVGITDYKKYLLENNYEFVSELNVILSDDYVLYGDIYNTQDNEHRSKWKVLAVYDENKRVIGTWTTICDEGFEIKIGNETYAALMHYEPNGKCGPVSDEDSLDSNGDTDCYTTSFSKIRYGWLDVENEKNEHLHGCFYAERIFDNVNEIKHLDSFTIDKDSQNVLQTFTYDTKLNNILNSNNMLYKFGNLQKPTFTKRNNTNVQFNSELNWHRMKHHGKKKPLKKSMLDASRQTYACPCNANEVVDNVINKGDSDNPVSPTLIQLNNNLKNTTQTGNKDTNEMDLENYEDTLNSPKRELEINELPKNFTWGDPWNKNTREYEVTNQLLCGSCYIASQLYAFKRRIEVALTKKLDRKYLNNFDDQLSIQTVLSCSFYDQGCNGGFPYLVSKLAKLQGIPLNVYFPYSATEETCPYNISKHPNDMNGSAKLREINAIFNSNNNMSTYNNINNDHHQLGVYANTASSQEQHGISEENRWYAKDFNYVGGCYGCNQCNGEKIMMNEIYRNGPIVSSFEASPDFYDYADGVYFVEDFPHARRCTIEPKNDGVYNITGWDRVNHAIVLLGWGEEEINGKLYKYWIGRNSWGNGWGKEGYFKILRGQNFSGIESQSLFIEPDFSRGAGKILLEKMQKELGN
row,SMILES,% Inhibition @ 10 uM
1,CCOC(=O)C1=C(CC)OC(N)=C(C#N)C1c1ccc(F)cc1 (stereo not drawn),1.75%
2,CN1C2=CC(=O)CCN2c2ccccc21,-7.7%
3,CCOC(=O)c1c(CN2CCOCC2)n(C)c2cc(Br)c(OC)cc12,-4.96%
4,O=C(NC1(C(F)(F)F)C(=O)Nc2c1c(=O)[nH]c(=O)n2-c1ccc(Cl)cc1)c1cccnc1 (stereo not drawn),5.24%
5,c1ccc2c(Cc3nn[nH]n3)c[nH]c2c1,85%
6,Cc1[nH]c(-c2ccc(F)cc2)cc1C(=O)NCCc1ccc(S(N)(=O)=O)cc1,3.05%
7,CCCn1c2ccccc2c2nnc(SC(CC)C(=O)Nc3cc(C)on3)nc21 (stereo not drawn),-5.08%
8,CN(C1CCCCC1)S(=O)(=O)c1ccc2nc(O)cc(C(=O)NCCc3ccccc3)c2c1,-1.96%
9,COc1cccc(/C=C2\NC(=O)N(Cc3ccc(C)cc3)C2=O)c1OC(C)C,-7.89%
10,O=C1CC(c2cccc(F)c2)c2c(O)nc3nc4ccccc4n3c2N1 (stereo not drawn),-2.05%
11,COc1cc(/C=C2/C(=N)N3OC(C)=CC3=NC2=O)ccc1OCc1ccc(F)cc1,3.63%
12,O=C(NC(C(=O)O)C12CC3CC(CC(C3)C1)C2)c1ccccc1F (stereo not drawn),-1.42%
13,CC(C)NC(=O)c1ccc(CS(=O)Cc2ccccc2Cl)o1 (stereo not drawn),7.38%
14,COc1ccc(S(=O)(=O)N(C)CC(=O)Nc2c(F)cccc2F)cc1,-0.67%
15,CC(C)Oc1ccc(S(=O)(=O)N(C(C)C)C(C)C)cn1,4.83%
16,Cn1nc(Oc2nc(N3CCOCC3)nc(N3CCOCC3)n2)ccc1=O,3.73%
17,CCn1ncc(C2C3=C(O)CCCC3=NC(C)=C2C(=O)Nc2ccc(C)cn2)c1C (stereo not drawn),2.51%
18,CC(=O)NCc1ccc(C(C)(C)C)s1,11.8%
19,O=C(CSc1nc2nncc-2c(O)n1-c1ccccc1)Nc1nc(-c2ccccc2)ns1,-4.43%
20,CCN1CCC(N(C)Cc2ccccc2)CC1,3.68%
21,O=C(COc1ccccc1)Nc1cc(Cl)ccc1Cl,-3.03%
22,O=C(CN1CCN(c2ccccn2)CC1)Nc1ccc(F)c(F)c1,2.38%
23,CCOC(=O)c1cnc2c(Cl)c(Cl)ccc2c1NCCOC(=O)c1cccnc1,-5.62%
24,COc1ccc(C2=C(C)C(C#Cc3ccccc3)c3ccccc3O2)cc1 (stereo not drawn),-0.233%
25,O=C(c1cc2c(s1)-c1ccc(Cl)cc1S(=O)(=O)C2)N1CCN(c2ncccn2)CC1,-6.33%

row,SMILES,% Inhibition @ 10 uM
1,COc1ccc(NC(=O)C(CC(C)C)N2C(=O)c3ccccc3C2=O)cc1 (stereo not drawn),-4.82%
2,COc1ccc(-c2cn3c(n2)sc2cc(C(=O)N4CCOCC4)ccc23)cc1,15.1%
3,CSc1ncccc1C(=O)Nc1c(C)nn(C)c1C,-5.03%
4,CCCCOc1ccc(C(C)NC(=O)CSCc2nc(-c3ccc(OC)cc3)oc2C)cc1 (stereo not drawn),-0.971%
5,CNC(=O)C1CC(=O)N(Cc2ccc(Cl)cc2)/C(=N/c2ccc(OC)cc2)S1 (stereo not drawn),3.17%
6,COCCN1C(=O)/C(=C/c2cc(Br)ccc2O)S/C1=N\c1ccccc1,17.6%
7,O=[N+]([O-])c1cccc(CN2CCc3ccccc3C2)c1,1.63%
8,CCOc1cc(C(=O)Nc2ccc(Cl)cc2F)cc(OCC)c1OCC,0.163%
9,O=C(Nc1ncccn1)C1c2ccccc2Oc2ccccc21,-3.77%
10,CCOc1ccc(/C=c2/oc3cccc4c(OC)ccc(c2=O)c34)cc1,-4.93%
11,O=C(Nc1cccc2ncccc12)c1cccs1,8.19%
12,CCCCCC1=NN2C(=O)CC(=O)N=C2S1,1.88%
13,N#Cc1c(NC(=O)c2cc(-c3ccc(O)cc3)on2)sc2c1CCC2,6.87%
14,CCOc1ccc2ncc(C(=O)c3ccc(C)cc3)c(N3CCCC3)c2c1,-8.57%
15,COc1ccc(N(CC(=O)N2CCOCC2)S(C)(=O)=O)cc1Cl,-7.97%
16,COC(=O)C1=C(C)NC(=O)CC1c1ccncc1 (stereo not drawn),-3.27%
17,COC(=O)c1ccc(-n2cccc2)cc1,-3.93%
18,COc1ccc(C(C(=O)O)(c2ccccc2)c2ccccc2)cc1OC,-0.703%
19,CCCCCCNC(=O)CCc1c(C)nc2c(-c3ccccc3)c(C)nn2c1C,1.26%
20,O=Cc1[nH]c(-c2ccccc2)c2ccccc12,-3.5%
21,CN(C)Cc1c(N)cccc1O,-1.86%
22,CCOC(=O)c1ccc(NC(=O)c2ccc(OC)cc2)cc1,0.00178%
23,CC1CCN(S(=O)(=O)c2nnc(NC(=O)c3cccc4ccccc34)s2)CC1,-5.37%
24,Cc1cccc(C)c1N1CCN(S(=O)(=O)N(C)C)CC1,5.03%
25,Cc1cc(O)c2c(c1)OC(C)(C)C1=C2CC(C)CC1 (stereo not drawn),1.7%

row,SMILES,% Inhibition @ 10 uM
1,CCCNC(=O)C1CCCN(c2nn3c(=O)cc(C)nc3s2)C1 (stereo not drawn),4.55%
2,O=C(COCc1cc(-c2ccc3c(c2)OCO3)on1)N1CCOCC1,2.37%
3,COc1cc(C)c(S(=O)(=O)NCCOc2ccccc2)cc1C(C)C,2.77%
4,C/C(Cl)=C/Cn1c(=O)c2c(nc(N3CCCCC3)n2C)n(C)c1=O,-0.988%
5,CC(Sc1nc(-c2ccccc2)cc(C(F)(F)F)n1)C(=O)N1CCCC1 (stereo not drawn),-0.958%
6,CC1SC2(OC1=O)C1CC3CC(C1)CC2C3 (stereo not drawn),1.67%
7,C=CCN(C#N)c1nc(NC(C)C)nc(NC(C)C)n1,5.55%
8,CCc1c(C)c2ccc(OC)c(C)c2oc1=O,-0.597%
9,Cc1ccccc1Cn1c(C2CCCO2)nc2ccccc21 (stereo not drawn),5.29%
10,CCC(NC(=O)[C@H](CC1CCCCC1)/N=C(\NS(C)(=O)=O)N1CCCC1)C(=O)c1nc2ccccc2o1 (stereo partly drawn),-6.56%
11,CC(C)(C)NS(=O)(=O)c1ccc2c(c1)C(=O)c1ccccc1C2=O,-0.128%
12,CCN1CCN(c2oc(/C=C/c3cccc(OC)c3)nc2C#N)CC1,0.895%
13,CCCCN1C(=O)C2Cc3c([nH]c4ccccc34)C(c3cc(Br)ccc3O)N2C1=O (stereo not drawn),8.01%
14,COc1ccccc1NC(=O)NCC1(C)CC(NC(=O)Nc2ccccc2OC)CC(C)(C)C1 (stereo not drawn),1.43%
15,Cc1ccc(SCCNC(=O)CN(c2cc(Cl)cc(Cl)c2)S(C)(=O)=O)cc1,-2.22%
16,CCn1cc(/C=C(\NC(=O)c2ccco2)C(=O)NC(C)C)c2ccccc21,1.64%
17,N#CCNC(=O)[C@H](CS(=O)(=O)Cc1ccccc1)/N=C/NS(=O)(=O)c1ccccc1,0.079%
18,COc1cc(/C=C2\SC(=O)N(CC(=O)N3CCOCC3)C2=O)ccc1O,1.15%
19,CN1CC=C(c2noc(CCC(=O)Nc3cccnc3Cl)n2)CC1,-1.06%
20,Cc1cccc(NC(=O)COc2ccc(S(=O)(=O)NC(C)C)cc2)c1,1.39%
21,OC1=C2C(=Nc3nn(-c4ccccc4)c(O)c3C2c2ccc3c(c2)OCO3)CCC1 (stereo not drawn),2.1%
22,CN(C(=O)c1cccs1)c1ccccc1C(=O)O,-8.28%
23,O=C1OC(/C=C/c2cccc(Cl)c2Cl)=NC/1=C\c1coc2ccccc2c1=O,5.17%
24,CC(C)Nc1nc2c(S(=O)(=O)c3ccc(Cl)cc3)nnn2c2ccsc12,-5.26%
25,CC1(c2ccccc2)OC(=O)C(=Cc2c[nH]c3ccccc23)C(=O)O1 (stereo not drawn),3.16%

row,SMILES,% Inhibition @ 10 uM
1,CC1(C)CC2=NC(S)=C(C#N)C(c3cccnc3)C2=C(O)C1 (stereo not drawn),67.3%
2,CCOc1ccc(CNC(=O)Cn2ccc3cc(S(=O)(=O)N4CCCC4)ccc32)cc1,-5.83%
3,COc1cc(C(=O)Nc2sc3c(c2C(=O)O)CCC(C)C3)cc(OC)c1OC (stereo not drawn),3.46%
4,CCC(=O)c1cn(CC(=O)O)c2ccccc12,-5%
5,O=C1C(Nc2cccc(C(F)(F)F)c2)=C(N2CCOCC2)C(=O)c2ccccc21,-3.63%
6,COc1ccc(-n2c3c(c(=O)[nH]c2=O)C(NC(=O)c2ccccc2F)(C(F)(F)F)C(=O)N3)cc1 (stereo not drawn),1.36%
7,CCOC(=O)CSc1nc(C2CC2)cc(-c2ccc(F)cc2)c1C#N,5.64%
8,COc1cc(OC)cc(C(=O)N2CCN(S(=O)(=O)c3ccc(Cl)cc3)CC2)c1,-1.6%
9,CC(C)(C)C(=O)C1=C(O)C(=O)N(Cc2ccccc2)C1c1ccccc1F (stereo not drawn),-0.884%
10,c1ccc(-c2nc3c4ccccc4nc(N4CCN(C5CCCCC5)CC4)n3n2)cc1,-2.42%
11,CCCCSc1nc2cc(C)ccc2n1C,1.84%
12,O=C(c1[nH]c2ccccc2c1Sc1ccc(Cl)cc1)N1CCC2(CC1)OCCO2,-3.1%
13,Fc1ccccc1N1CCN(CC(c2ccccc2)c2ccccc2)CC1,-2.21%
14,Cc1cc(-c2ccc(C)c(S(=O)(=O)N(Cc3ccccc3)C(C)C)c2)on1,0.098%
15,O=C(CCn1nc(-c2ccccc2)ccc1=O)N1CCCC1,-5.43%
16,COc1cc(OC)cc(C(=O)Nc2ccc(F)cc2F)c1,1.04%
17,COCCCNC(=O)c1ccc(CS(=O)Cc2ccc(C)cc2)o1 (stereo not drawn),-5.43%
18,c1ccc(CN2CCC(N3CCCCCCC3)CC2)cc1,0.472%
19,O=C(C(Cc1ccccc1)N1C(=O)C2C3c4ccccc4C(c4ccccc43)C2C1=O)N1CCCCC1 (stereo not drawn),2.38%
20,CCCCNC(=O)C1C2C=CC(C2)C1C(=O)O (stereo not drawn),0.512%
21,COCCNC(=S)N(CCc1c(C)[nH]c2ccc(OC)cc12)Cc1ccccn1,-4.14%
22,CCCCCCCCOc1ccc(/C=C(\C#N)c2nc(-c3ccc(C)cc3)cs2)cc1,4.16%
23,CCOc1ccccc1C(=O)N1CCN(C(c2ccccc2)c2ccccc2)CC1,-3.35%
24,COc1cc(CNCCCN2CCOCC2)cc(Cl)c1OCC(=O)NC(C)(C)C,2%
